Some of the results follow. At the low end of the ranking the order means little.

This test concerns T1, GST-NbGlk1(82-244).
T1 sequence: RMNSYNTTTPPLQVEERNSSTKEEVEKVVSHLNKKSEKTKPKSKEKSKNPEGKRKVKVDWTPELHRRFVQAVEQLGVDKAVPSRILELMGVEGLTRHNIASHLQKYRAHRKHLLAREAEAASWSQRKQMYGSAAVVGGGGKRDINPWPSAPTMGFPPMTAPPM
Briefly: protein-binding microarray.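 Note: rank-based score ranging −0.5 to +0.5 with E above 0.45 taken as significant binding.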 As to conditions: NbGlk1 is a Golden2-like transcription factor of Nicotiana benthamiana; high values mean tight binding; most listed sequences are background and not binding sites; double strand, one strand shown.
ATTGTTTG: the binding signal is 0.0616 E-score. The sequence ATTGTCTG registered a binding signal of 0.13 E-score. The value for AGGCTCGA was -0.199 E-score; that for AAAAATTG was 0.0342 E-score. ACGATCTG showed a binding signal of 0.298 E-score. Regarding ACATAGGG, the binding signal is -0.026 E-score. AATTACCC showed a binding signal of 0.108 E-score. In turn, CACTGCAG gave a binding signal of -0.108 E-score. On to AGGGACTA, for which the binding signal was -0.169 E-score.

For AAGGGACA, the binding signal is -0.169 E-score. Next, AAAATGCA: 0.105 E-score. Sequence CAGAAGGG came in with a binding signal of -0.212 E-score. Consider AAGGTCAC, for which the binding signal is -0.269 E-score.

Sequence CAGAGACG returned a binding signal of -0.174 E-score. The value for ACGCGAGA was 0.0186 E-score; that for ATTGCAAG was 0.143 E-score; that for ATGAGGAC was -0.123 E-score. AATGGACC showed a binding signal of -0.272 E-score. The sequence ACTCATCT yielded a binding signal of -0.122 E-score. Consider AAAGCCAA, for which the binding signal was -0.167 E-score. The value for AAATCTTA was 0.44 E-score. With AAAGTCGC, the binding signal worked out at 0.0306 E-score. On to ATGACAAA, for which the binding signal was 0.15 E-score.

Consider AAACTGGC, for which the binding signal was -0.161 E-score. Consider ATTGTCAA, for which the binding signal is 0.162 E-score. In turn, CACTGGGC displayed a binding signal of -0.24 E-score. AAGTAGGT registered a binding signal of -0.114 E-score. Next, AGCCCACC: -0.243 E-score; ACCATTGG: -0.183 E-score; AGAACAAG: -0.0832 E-score. Take ACCGAGCC: the binding signal is -0.364 E-score. Regarding AGCTTCAG, the binding signal was -0.218 E-score. With ATCGGGCG, the binding signal was 0.0618 E-score.

For the sequence AGACAATC, the binding signal worked out at 0.319 E-score. For the sequence AGCTATCC, the binding signal was 0.00396 E-score. ACGCCGAT: the binding signal came to 0.0867 E-score.

On to AAGGATCT, for which the binding signal was determined as 0.335 E-score.

ACGGGCAG: the binding signal was -0.18 E-score. On to AGTCCTGC, for which the binding signal is -0.325 E-score. The sequence AATCGGAC yielded a binding signal of 0.194 E-score. AGTTGGTC: the binding signal was -0.161 E-score.

Sequence ACTGTGAG had a binding signal of -0.223 E-score. Turning to ACGGTTAT, the binding signal was determined as 0.00187 E-score. In the case of ACGGCCCA, the binding signal is -0.315 E-score. With ACGGGTAA, the binding signal is -0.156 E-score. On to AGAGCCCA, for which the binding signal was -0.25 E-score. Sequence AACAGGGG displayed a binding signal of -0.165 E-score. For ATGCCTCC, the binding signal was -0.317 E-score. Turning to AATGAACA, the binding signal is 0.0275 E-score.

ACGCGCAA registered a binding signal of 0.149 E-score. The value for ATGAGGGC was -0.18 E-score; that for AAATTTCG was 0.332 E-score. The value for AACTATAC was -0.0928 E-score; that for ACATCATC was -0.093 E-score.

ATTAGTCG: the binding signal was -0.0452 E-score. Consider ACACAGAT, for which the binding signal stood at 0.294 E-score.

For AGAAAGAT, the binding signal amounted to 0.185 E-score. For the sequence ATGCCGGA, the binding signal worked out at 0.00648 E-score. For ACCCACTC, the binding signal is -0.272 E-score.

As for AGTACTTG, the binding signal was 0.0366 E-score. In the case of AATCACCA, the binding signal stood at 0.26 E-score. Take ACAGTACG: the binding signal was -0.113 E-score. In the case of CACCATAC, the binding signal was 0.0253 E-score. Regarding AGGTTATC, the binding signal is -0.0657 E-score. The value for AAGGTTTC was -0.0841 E-score; that for ACAGTTCA was -0.09 E-score. In the case of ACGGTAGA, the binding signal was -0.0107 E-score. Take AGTCTGGG: the binding signal was -0.15 E-score. As for AAAATAGT, the binding signal amounted to 0.0268 E-score. Sequence ACCTAGGG returned a binding signal of -0.0916 E-score.

Turning to ACCCTGAG, the binding signal was -0.232 E-score. CACGTACG gave a binding signal of -0.118 E-score. For the sequence AAAGTAGA, the binding signal is -0.0402 E-score. AACCACCC gave a binding signal of -0.115 E-score. ACCTACTG: the binding signal is -0.127 E-score. As for AACAATAT, the binding signal stood at 0.178 E-score. Regarding AGGACCGA, the binding signal was -0.0887 E-score.

The sequence AGGTGCAT yielded a binding signal of -0.229 E-score. As for AACTGTTG, the binding signal is -0.129 E-score. ATACAGAT registered a binding signal of 0.232 E-score. Next, ACAATACT: 0.11 E-score. In turn, ATAATAGC had a binding signal of 0.0118 E-score.

In the case of ATACTACA, the binding signal is 0.146 E-score.

For the sequence AACCCAGG, the binding signal was -0.109 E-score. AACGTAGC gave a binding signal of -0.14 E-score. As for ACAAAGAT, the binding signal came out at 0.204 E-score.

The sequence AAAACAGT came in with a binding signal of 0.00413 E-score. Regarding AATCTAAT, the binding signal is 0.412 E-score. AGCCCTAT registered a binding signal of -0.252 E-score. ACACACTA: the binding signal worked out at 0.0417 E-score. ACATACGG gave a binding signal of 0.048 E-score. As for CACGCGCC, the binding signal was -0.113 E-score. For the sequence AAGACGGA, the binding signal is -0.135 E-score. AGCAGCTC came in with a binding signal of -0.252 E-score. The sequence AATGCTCA came in with a binding signal of -0.119 E-score. The value for AGCCTTCG was -0.24 E-score; that for ACGAAGAG was -0.0447 E-score; that for AGTGCCAG was -0.294 E-score. Next, AAACCCTG: -0.141 E-score; AGGTCATG: -0.188 E-score; AGATGCCT: -0.193 E-score.

Consider AACGTGTC, for which the binding signal is -0.15 E-score. ACCCTGCA: the binding signal is -0.123 E-score. Next, ATAAGGAG: -0.00378 E-score.

For AATGCAGG, the binding signal came out at 0.087 E-score. The sequence ATAGCAAG yielded a binding signal of 0.00852 E-score. AGTACGAC showed a binding signal of -0.00697 E-score. Take ATATTCGC: the binding signal was 0.321 E-score. ACCACCAA: the binding signal is -0.0665 E-score. ACTTCCAT: the binding signal was -0.0677 E-score. For the sequence ATCAACGC, the binding signal was 0.098 E-score.

Consider AGTAAGAT, for which the binding signal stood at 0.231 E-score.

ATGGTACA gave a binding signal of -0.0426 E-score. AGTCGTAA yielded a binding signal of 0.00338 E-score. The value for AGGTGCGG was -0.133 E-score; that for AAAAATGT was -0.0222 E-score. In turn, AAAACAAG yielded a binding signal of -0.0222 E-score. Sequence ATGTAACC showed a binding signal of -0.05 E-score. Sequence AACTCAAA gave a binding signal of 0.0356 E-score. As to AGGTCCAG, the binding signal is -0.273 E-score. Next, AGCCCGAC: -0.255 E-score.

As to ACTTAAGA, the binding signal came out at 0.00253 E-score. AGACATCG returned a binding signal of -0.0258 E-score.

AAAAGTAG registered a binding signal of -0.0147 E-score. AAGACCAA came in with a binding signal of -0.0908 E-score. The sequence AAGTCGGG registered a binding signal of -0.168 E-score. AAATTCTC yielded a binding signal of 0.283 E-score. In the case of AATTTAGC, the binding signal was 0.102 E-score. In the case of AAAGGCTC, the binding signal was -0.269 E-score.

As to CAAGTATC, the binding signal is 0.147 E-score. As for AGACTGTC, the binding signal is -0.116 E-score. Turning to AGTAGAGG, the binding signal was -0.172 E-score.

As for AGGGAGTC, the binding signal is -0.269 E-score. Turning to CACATAAA, the binding signal is 0.0365 E-score.

In the case of ATCCGTTG, the binding signal stood at 0.233 E-score. The sequence ATGCTGTC registered a binding signal of -0.0341 E-score. With ATATGCTG, the binding signal worked out at 0.258 E-score. AAACTGCT: the binding signal is -0.23 E-score.

AGAGTAGG gave a binding signal of -0.149 E-score. The sequence AATATAAT registered a binding signal of 0.19 E-score.

ATCCACTC returned a binding signal of 0.228 E-score.

AACCTCGT returned a binding signal of -0.163 E-score. The value for AACGTTAG was -0.0826 E-score; that for AGGAATCA was 0.32 E-score. In the case of AACCGTTC, the binding signal is -0.145 E-score. Next, ATACCCAC: 0.148 E-score; ACCTGAGA: 0.00332 E-score.

The sequence AGTACTGG showed a binding signal of -0.0797 E-score. In the case of AGTAGAAA, the binding signal came to 0.141 E-score. For the sequence ACACAAGA, the binding signal was 0.0536 E-score. The value for ACAAACCG was -0.0186 E-score; that for AGACCCAA was -0.167 E-score; that for CAAATTTA was 0.0333 E-score.

ATGGGTTG gave a binding signal of -0.188 E-score. As for AGTATGTC, the binding signal is -0.183 E-score. Take ACCAGTAT: the binding signal was determined as 0.102 E-score. In turn, ACGTTTCC gave a binding signal of 0.0502 E-score. As to ACGTGACC, the binding signal is -0.199 E-score. Regarding AAGTCAAC, the binding signal is -0.159 E-score. Consider ATCTCCAG, for which the binding signal was 0.293 E-score. The sequence AGAGCGTC had a binding signal of -0.225 E-score. Regarding AGGTAAGC, the binding signal turned out to be 0.0148 E-score. As for ACTTTCTA, the binding signal stood at 0.0537 E-score. AAACCAAT came in with a binding signal of 0.014 E-score. In turn, AGGGCTCC gave a binding signal of -0.296 E-score.

Regarding AACTCTCT, the binding signal is -0.165 E-score. Next, ATTTTTTA: 0.264 E-score; AGTTTGGC: -0.224 E-score; AGATCGAT: 0.234 E-score. On to AATGGAGG, for which the binding signal is -0.123 E-score. In turn, CAAGTACG had a binding signal of -0.00956 E-score.

Take AATGCTCT: the binding signal was -0.224 E-score.

The values above are taken from PMC5836133.
